Test results from PubChem BioAssay AID1963576 (National Center for Advancing Translational Sciences (NCATS), 2024).
Among all 46,000 compounds or so, about 60 (0.1%) were called active. Another 3% or so got no clear call; they are omitted. The call rests on the fitted dose curve; in most records, active means well fitted inhibition curve with a large enough effect; inconclusive means small, poorly fitted or top-dose-only effect; inactive means no such curve, though single readings can be large or run the other way. Some of the results follow.

experiment: Primary qHTS assay for Inhibitors of ovarian cancer metastasis using an organotypic tumor microenvironment (TME) model.; further: nearly all actives have a fitted effect of over 65% in size;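 on activity change, negative = inhibition: plate controls were DMSO wells for no effect and tomatine positive control wells for full effect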; conditions: SKOV3ip1-GFP adhesion/invasion on 3D omental model, fluorescence; series mostly up to 45.8 µM; activity change, negative = inhibition: at the top concentration
Outline: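 Primary human omental fibroblast/mesothelial 3D culture pre-formed 48 h. SKOV3ip1-GFP cells added with compounds (0.36-46 umol/L), incubated 2 h RT/16 h 37 C, fixed; GFP cells quantified at 488/509 nm.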

outcome, inactive:
Cc1ccc(NC(=O)c2cc3c(=O)n(Cc4ccco4)ccc3nc2C)cc1C
Cc1ccc(OCC(=O)N(Cc2ccco2)Cc2ccco2)cc1C
COc1ccc(C2C(C(=O)Nc3ccccc3OC)=C(C)Nc3c(C(=O)Nc4ccccc4)cnn32)c(OC)c1 (stereo unspecified)
CCOc1cccc(OCCCn2c(-c3ccc(Br)cc3)nc3ccccc3c2=O)c1

Activity change, negative = inhibition, inactive:
COc1cn(CC(=O)Nc2ccccc2)c(CN2CCCCC2)cc1=O -5.78%
CC(C)CCNC(=O)CCn1c(=O)c2cccn2c2cccnc21 -0.148%
Cc1ccc(NC(=O)c2c(C)oc3ccc(O)c(CN4CCOCC4)c23)c(C)c1 18.1%
CCOc1ccc(NC(=O)N(Cc2c[nH]c3ccccc23)C2CCCCCC2)cc1 4.99%
CCOc1ccc(-c2cc(-c3nc(-c4ccc(C)cc4)no3)[nH]n2)cc1 2.25%
COc1cccc(CNC(=O)c2ccc(NC(=O)N3CCCCc4ccccc43)cc2)c1OC 8.28%
CC(=O)c1cccc(NC(=O)C(C)n2c(=O)cc(-c3ccccc3)c3c(C)nn(C)c32)c1 (stereo unspecified) -3.6%
CC1(C)[C@H]2CC[C@]3(C)[C@@H](C(=O)C=C4[C@@H]5C[C@@](C)(C(=O)O)CC[C@]5(C)CC[C@]43C)[C@@]2(C)CC[C@@H]1O 17.7%
COc1cccc(CNC(=O)c2c(C)oc3nc(C)nc(N4CCOCC4)c23)c1 8.78%
CCOC(=O)C1CCN(C(=O)CSc2n[nH]c(-c3ccc(F)cc3)n2)CC1 -7.39%
O=C(Cn1c(=O)oc2cc(S(=O)(=O)N3CCCC3)ccc21)NCc1ccc(F)cc1 20.4%
CCc1cccc(C)c1NS(=O)(=O)c1c(C)nc2sccn2c1=O 23.3%
O=C(O)CCCCCC(=O)NN=C1CCCC1 -8.17%
COC(=O)CSc1ncc2c(n1)-c1ccccc1N(Cc1cccc(F)c1)S2(=O)=O 2.14%
CCN1C(=O)c2ccccc2S(=O)(=O)c2ccc(C(=O)NCc3ccccc3Cl)cc21 8.13%
O=C(Cn1ccc2cc(S(=O)(=O)N3CCCCCC3)ccc21)NCCc1ccc(Cl)cc1 2.76%
O=C(NC1CCCCCC1)C1c2ccccc2C(=O)N1Cc1ccccc1Cl (stereo unspecified) -4.35%
CCN(CC)S(=O)(=O)c1ccc2c(c1)N(CC(=O)N1CCN(c3ccc(Cl)cc3)CC1)C(=O)CO2 -7.82%
CCOC(=O)c1c(-c2ccccc2)csc1NC(=O)c1cc(-c2ccc(C)c(F)c2)on1 0.794%
Cc1cccc(C(=O)Nc2ccc(OCc3cc(=O)n4ccsc4n3)cc2)c1 -6.46%
CC(C)OC(=O)c1cccnc1SCC(=O)Nc1ccc(C(F)(F)F)cc1Cl 6.22%
Cc1ccc(Cl)cc1N1CCN(C(=O)CCCCCn2c(=O)[nH]c3ccccc3c2=O)CC1 8.73%
